According to PMC4613507 (Biochemical Journal, 2015):

Target: MBP–NHERF2 (full-length) (UniProt Q15599 1-337)
Test: pull-down

B1: GST-N–ezrin (GST-tagged N-terminal ezrin […] aa) (domain or fragment)
chain: not shown
B1: binds.
